The chains are these.
B1: OR4K15 (parent)
chain: GUUAACGGUCAUAGGCCAUGGAAACUAGGAGCACCAUUUCGCUGCCAGUGAAGAAAUGAACAAAGAAAAUCUGGGCCAGGCAGGCAUCAAAAGAAAUAGUCUUGCGCUCAACCAGAAAGUCUGUAAUCAUUUUAAGGGUA

Read counts are not given, so values of variants with three or more changes are uncertain.

The variants in this series derive from B1. Description: self-cleavage, relative activity (ratio to wild type); higher = more cleavage; in vitro, sequencing; the parent is a self-cleaving ribozyme.
As to A4U C25U A59G A69G U70C A134G, the self-cleavage was determined as 0.48. With A5G A52G A55G G73A G75C U122A the figure was 0.08. As for A5G A90U U130C, the figure is 0.5; as for A5G A95G U108C U131C, 0.01; as for A5G A56G U108C C112A, 0.03. With A5C U9A A30G A64G A116G the figure was 0.5. Turning to A5G A18G A78G U102C A110U U130C, the self-cleavage came out at 1.12.

Take A4G A18U A92G: the self-cleavage came to 1.47. With A4G A69G A96G the figure was 1.21; with A5G A33U U127A, 2.12. In the case of A4G A11U A18G A111G A114G, the self-cleavage was 0.03. With U3C A23G A33G the figure was 0.64; with A4G A51G A59G G83A, 1.55. With A5G A118G U127C, the self-cleavage turned out to be 0.15. As for U3C A90G U133C, the figure is 1.63; as for A4G A52G U122A, 0.39; as for U3C C25U A59G, 1.07.

In the case of A5G C10U A60G A90G A118U, the self-cleavage came to 0.06.

On to A5G A18G A91G, for which the self-cleavage stood at 1.1. With A5G A24G A56G U100C the figure was 1.4; with A5G A22G A63G C107A, 0.14; with A5G C6U U49C A60G, 1.31. With U3C U43C A118G the figure was 0.87.

For A5G A54U A62U U139A, the self-cleavage is 0.98. As for A4G A24G C121U, the figure is 2.25; as for U3C A59G A82G, 0.32. In the case of A5G A11G A23G G50A A90G, the self-cleavage worked out at 0.84. With A5G A91G U122C U127C the figure was 0.43; with A4G A5G U37C U57A, 0.51; with U3C U57A A82G A92G U132C, 0.33.

In the case of A5G A27G U102C, the self-cleavage was determined as 1.09. Take A4G C32U U38A C101U U108C C121U: the self-cleavage was found to be 0.03. As for A5G A59G A125G, the figure is 0.86; as for A5G A30U U108C A116G U122A, 0.02. With U3G U9C U26C U43A A67G U70A A92G U103C the figure was 0.14; with A4G U9G U57C, 1.4; with U3C U103C A126G, 0.43.

On to A4G U19C U122C, for which the self-cleavage was 0.88. As for A5G A95U A111G U120A U124C, the figure is 0.02; as for A5G A56G A90G, 0.69; as for U3C U26C U87C A89U A96G U108A A117G, 0.01. As for A5G A60G A114G, the figure is 0.69; as for U3C U9C U72A U108C, 0.05; as for A5G A11G A92G U139C, 0.69. With U3C A92G U108C A111G A116G U130G the figure was 0. For A5G A30U U102C, the self-cleavage was determined as 1.41.

As to A5G A52U A86G, the self-cleavage was 1.28. Regarding U3C A96G U122C U131A, the self-cleavage amounted to 0.99. With A4G A52U A92G the figure was 0.44.

Consider A5G A52G A117G, for which the self-cleavage came to 1.09. With A5G C6U A82G A116G the figure was 0.11; with A4G U43C A54G A55G U103C, 0.43. With A5G A23G A60G the figure was 1.34.

For the variant A5G A22G A66G A68G U131C, the self-cleavage amounted to 0.99.

As to U3C A47U A134G, the self-cleavage turned out to be 1.33. As for A4G A33G U38C U57A, the figure is 1.14; as for A4G A33G A56G U102C, 1.29. Take A5C U87C U103C: the self-cleavage is 0.8. With U3C A18C A82C A125C the figure was 0.23; with U3C G8A A59G A63G A69U U103A, 1.06.

For A4G A95G U127C U130C, the self-cleavage amounted to 1.11.

For the variant A5G A23G U72C G73U A129G, the self-cleavage amounted to 0.17.

For the variant A4G A33G A67G A90G A96G A114U, the self-cleavage is 0.04.

With A5G A55G U70C, the self-cleavage stood at 0.92.

On to A5G C10U A22G A60G A68G, for which the self-cleavage was 0.42. As for A5G A27G A36G U57C A63G, the figure is 0.95; as for U3C C17A A95C A126G, 0.82. With A5G A30G A78G A90U U100C A117G the figure was 0.32.

For the variant U3C A30U A52G, the self-cleavage was 1.77. As for A4G G8A A82G, the figure is 0.77; as for A5C U9A A91G A94G U122C, 0.82; as for U3C A52U A118G, 1.06. In the case of A5G A68U A111C, the self-cleavage came to 0.08. As for A4C A13G A36G, the figure is 1.26; as for A4G A90G A117G, 0.62. With U3C A68C G74A the figure was 0.31. As for A4G C42U U122A, the figure is 1.45; as for U3C A5U U39C A116G, 0.26. On to A5G A51G A56G G80U A129U, for which the self-cleavage amounted to 0.12. As for A5G A55G A126U, the figure is 1.16; as for A4G U37C A118G, 0.95; as for A5G A22G U72A A90U, 0.32.

With A4G U49C U70C U130C, the self-cleavage is 0.33. As to A5G A27U A90G, the self-cleavage was found to be 1.03. As for U3C A11G A56G A78G, the figure is 0.09; as for A5G A33G U100C, 1.63; as for A4G C42U A66G U130C, 0.54. As for A4G U49C A59G A67G A116U, the figure is 0.17. As for A4G A86G A116G, the figure is 0.55; as for A4G U9C A11G U57C A59G A92C, 1.13; as for A5G A18U A78G A94U, 0.25. Regarding A5G A62C A91G U100A A111G, the self-cleavage is 0.02. Turning to U3C U19C A52U A54G A92G A110G, the self-cleavage is 0.2. As for A5G A54C A64G, the self-cleavage is 0.99.

For the variant A4G A66G U108A, the self-cleavage is 0. With U3C A82U A111G the figure was 0.08; with A5G A78U U108C U122C U132C, 0; with U3C A22G A92G, 0.79.

For the variant A4G U39C A126G, the self-cleavage is 0.78. With A4G A11G A90G U122C the figure was 0.76; with A5G A18U A22G U37C A78G A89C A114U, 0.06. With A5G A22U U103C the figure was 0.78; with A4U A63G G75C U87C A134G, 0.15; with A5G A13C A111G A125G, 0. With A5G A11G U103C U122C the figure was 0.59. Regarding A4G A78G A117G U131C, the self-cleavage stood at 0.59. With U3C A27G A60G U87A A94G the figure was 1.11; with A4G U12C A13G A22G A51G, 0.68.

Take A4G A67G A91U U130C: the self-cleavage amounted to 0.77. With A4G A24U U37C A63G the figure was 1.46; with A5G A27G A33G A36G A52G G84U A111G A114G, 0.01; with U3C A60G A63G U120C U139C, 0.47. As for A5G A66U U102C A125G A126U, the figure is 0.44; as for A4U U49C A126C, 1.06; as for A4G A5G U43C A125G, 0.5.

On to A4G A22U A69U U120G, for which the self-cleavage came to 1.88.

Consider A4G A67G A69G, for which the self-cleavage is 0.58.

In the case of A5G A23G C45U A95G A111G, the self-cleavage was found to be 0.02.

Regarding A5G A18G U39C, the self-cleavage was 0.78.

Consider A5G A22G A68U U108C A114G, for which the self-cleavage came to 0.02. As for A5G A54U A64G U70C U120A, the figure is 1.22. As for A4G A89G A114G, the figure is 0.62.

Take U3C A33G A67U A117G U124C: the self-cleavage was 0.65. With U3C U37C U49C the figure was 0.67; with A5G A33G U97A A116G A118G, 0.11; with U3C A96G U103C, 1.04. Take A5G A22U A126G: the self-cleavage is 0.09. For the variant U3C A27U A54G A66C A116G, the self-cleavage is 0.41. With A5G A36C A52G the figure was 0.47. As for U3C A11G A52G, the figure is 0.59. With U3C A52G A55G A116G A129G the figure was 0.58; with U3C A13G A92G U124A A126G, 0.51; with U3C A27G U131C, 0.92. With A5G A51G G106U, the self-cleavage was 0.

Consider A5G A62G A63G, for which the self-cleavage turned out to be 1.33. With A4U A90G A91G A118G the figure was 0.74; with A4G A11U A78G, 0.27.

In the case of A5G A54G A55G A91G, the self-cleavage was 0.36. With A5G A23G A62C A66U U102C the figure was 1.02. With A4U A18U U49C A56G the figure was 1.12; with A5G A27G A36U A62U U132C, 0.84; with U3C U26C A90G A117G, 0.68.

On to U3C G7A C71U A116G A126G, for which the self-cleavage amounted to 0.02. As for A5C U100C U130C, the figure is 0.56; as for A5C A13G A78U A110G A118U, 0.07; as for U3C U12C U43C U57C A82G G83C, 0.15. With A5G A67U U108C the figure was 0.02; with A5G C16A A94G, 1.1.

In the case of A5G A60G A98G, the self-cleavage came to 1.01.

On to A5G A18U U49C A129U, for which the self-cleavage turned out to be 0.98. With U3C C35U U38A A51U the figure was 0.93; with U3C A52G A63G, 0.89; with A5G A33G U57C A117C A129G, 0.43. A5G A52G A78G A118G: the self-cleavage turned out to be 0.31.

With A4G A78U U97C, the self-cleavage turned out to be 0.32.

For the variant A5G A18G A111G A114G U131C, the self-cleavage was 0.01. With A5G A18G A94G U131C the figure was 2.07; with A5G A24G A60G A92G, 1.09; with U3C U39A U57A U70C, 0.19. With U3C A63G A66G A96G U97C A116G A126C the figure was 0.05; with A5G A51G U100C A111G A117G, 0.19. In the case of A5G A30G G115U, the self-cleavage amounted to 0.

On to A4G A23G U43C A82G, for which the self-cleavage came to 0.5. Turning to U3C A60G A69G, the self-cleavage is 1.15. With A5G A51G A60G U120C the figure was 0.93; with A4G U72A A135G, 0.8. As for U3C U49A A90U, the figure is 0.91.

Source of the values: the RNAGym collection of RNA variant scans (doi:10.7554/elife.90254).
